The list shows a part of the results.
How the values were obtained:
Assay in all cases: glycan array binding signal (z-score within array); higher = stronger binding
Details in all cases: glycan notation: IUPAC condensed, linker removed
[1] = molecular target: GlcNAc(b1-2)[GlcNAc(b1-4)]Man(a1-3)[GlcNAc(b1-4)][GlcNAc(b1-2)[GlcNAc(b1-6)]Man(a1-6)]Man(b1-4)GlcNAc(b1-4)GlcNAc
Method in brief: (§1)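 Arrays were curated from the Consortium for Functional Glycomics database, 3228 in total, and kept only where the protein sequence was available. Binding is expressed as a within-array Z-score. This score was averaged across arrays of the same protein sequence at different concentrations or buffers and across linkers, and negative values can be read as non-binding.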

[2] = molecular target: GlcNAc(b1-2)[GlcNAc(b1-4)]Man(a1-3)[GlcNAc(b1-4)][GlcNAc(b1-2)[GlcNAc(b1-6)]Man(a1-6)]Man(b1-4)GlcNAc(b1-4)[Fuc(a1-6)]GlcNAc
Method in brief: as §1

[3] = molecular target: GlcNAc(b1-2)[GlcNAc(b1-6)]Man(a1-6)[GlcNAc(b1-2)Man(a1-3)]Man(b1-4)GlcNAc(b1-4)GlcNAc
Method in brief: as §1

[4] = molecular target: GlcNAc(b1-2)[GlcNAc(b1-6)]Man(a1-6)[GlcNAc(b1-2)Man(a1-3)]Man(b1-4)GlcNAc(b1-4)[Fuc(a1-6)]GlcNAc
Method in brief: as §1

[5] = molecular target: GlcNAc(b1-2)[GlcNAc(b1-6)]Man(a1-6)[GlcNAc(b1-4)][GlcNAc(b1-2)Man(a1-3)]Man(b1-4)GlcNAc(b1-4)GlcNAc
Method in brief: as §1

GlcNAc(b1-3)Fuc = molecular target: GlcNAc(b1-3)Fuc
Method in brief: as §1

GlcNAc(b1-3)Gal = molecular target: GlcNAc(b1-3)Gal
Method in brief: as §1

[6] = molecular target: GlcNAc(b1-3)Gal(b1-3)GalNAc
Method in brief: as §1

GlcNAc(b1-3)Gal(b1-4)Glc = molecular target: GlcNAc(b1-3)Gal(b1-4)Glc
Method in brief: as §1

[7] = molecular target: GlcNAc(b1-3)Gal(b1-4)GlcNAc
Method in brief: as §1

[8] = molecular target: GlcNAc(b1-3)Gal(b1-4)GlcNAc(b1-2)Man(a1-3)[GlcNAc(b1-3)Gal(b1-4)GlcNAc(b1-2)Man(a1-6)]Man(b1-4)GlcNAc(b1-4)GlcNAc
Method in brief: as §1

[9] = molecular target: GlcNAc(b1-3)Gal(b1-4)GlcNAc(b1-2)Man(a1-3)[GlcNAc(b1-3)Gal(b1-4)GlcNAc(b1-2)Man(a1-6)]Man(b1-4)GlcNAc(b1-4)[Fuc(a1-6)]GlcNAc
Method in brief: as §1

[10] = molecular target: GlcNAc(b1-3)Gal(b1-4)GlcNAc(b1-2)[GlcNAc(b1-3)Gal(b1-4)GlcNAc(b1-6)]Man(a1-6)[GlcNAc(b1-3)Gal(b1-4)GlcNAc(b1-2)Man(a1-3)]Man(b1-4)GlcNAc(b1-4)GlcNAc
Method in brief: as §1

[11] = molecular target: GlcNAc(b1-3)Gal(b1-4)GlcNAc(b1-3)Gal(b1-4)GlcNAc
Method in brief: as §1

[12] = molecular target: GlcNAc(b1-3)Gal(b1-4)GlcNAc(b1-3)Gal(b1-4)GlcNAc(b1-2)Man(a1-3)[GlcNAc(b1-3)Gal(b1-4)GlcNAc(b1-3)Gal(b1-4)GlcNAc(b1-2)Man(a1-6)]Man(b1-4)GlcNAc(b1-4)GlcNAc
Method in brief: as §1

[13] = molecular target: GlcNAc(b1-3)Gal(b1-4)GlcNAc(b1-3)Gal(b1-4)GlcNAc(b1-2)Man(a1-3)[GlcNAc(b1-3)Gal(b1-4)GlcNAc(b1-3)Gal(b1-4)GlcNAc(b1-2)Man(a1-6)]Man(b1-4)GlcNAc(b1-4)[Fuc(a1-6)]GlcNAc
Method in brief: as §1

[14] = molecular target: GlcNAc(b1-3)Gal(b1-4)GlcNAc(b1-3)Gal(b1-4)GlcNAc(b1-2)[GlcNAc(b1-3)Gal(b1-4)GlcNAc(b1-3)Gal(b1-4)GlcNAc(b1-6)]Man(a1-6)[GlcNAc(b1-3)Gal(b1-4)GlcNAc(b1-3)Gal(b1-4)GlcNAc(b1-2)Man(a1-3)]Man(b1-4)GlcNAc(b1-4)[Fuc(a1-6)]GlcNAc
Method in brief: as §1

[15] = molecular target: GlcNAc(b1-3)Gal(b1-4)GlcNAc(b1-3)Gal(b1-4)GlcNAc(b1-3)Gal(b1-4)GlcNAc(b1-2)Man(a1-3)[GlcNAc(b1-3)Gal(b1-4)GlcNAc(b1-3)Gal(b1-4)GlcNAc(b1-3)Gal(b1-4)GlcNAc(b1-2)Man(a1-6)]Man(b1-4)GlcNAc(b1-4)GlcNAc
Method in brief: as §1

[16] = molecular target: GlcNAc(b1-3)Gal(b1-4)GlcNAc(b1-3)Gal(b1-4)GlcNAc(b1-3)Gal(b1-4)GlcNAc(b1-2)Man(a1-3)[GlcNAc(b1-3)Gal(b1-4)GlcNAc(b1-3)Gal(b1-4)GlcNAc(b1-3)Gal(b1-4)GlcNAc(b1-2)Man(a1-6)]Man(b1-4)GlcNAc(b1-4)[Fuc(a1-6)]GlcNAc
Method in brief: as §1

[17] = molecular target: GlcNAc(b1-3)Gal(b1-4)GlcNAc(b1-3)Gal(b1-4)GlcNAc(b1-3)Gal(b1-4)GlcNAc(b1-2)[GlcNAc(b1-3)Gal(b1-4)GlcNAc(b1-3)Gal(b1-4)GlcNAc(b1-3)Gal(b1-4)GlcNAc(b1-6)]Man(a1-6)[GlcNAc(b1-3)Gal(b1-4)GlcNAc(b1-3)Gal(b1-4)GlcNAc(b1-3)Gal(b1-4)GlcNAc(b1-2)Man(a1-3)]Man(b1-4)GlcNAc(b1-4)[Fuc(a1-6)]GlcNAc
Method in brief: as §1

[18] = molecular target: GlcNAc(b1-3)Gal(b1-4)GlcNAc(b1-3)Gal(b1-4)GlcNAc(b1-3)Gal(b1-4)GlcNAc(b1-3)Gal(b1-4)GlcNAc(b1-2)Man(a1-3)[GlcNAc(b1-3)Gal(b1-4)GlcNAc(b1-3)Gal(b1-4)GlcNAc(b1-3)Gal(b1-4)GlcNAc(b1-3)Gal(b1-4)GlcNAc(b1-2)Man(a1-6)]Man(b1-4)GlcNAc(b1-4)GlcNAc
Method in brief: as §1

[19] = molecular target: GlcNAc(b1-3)Gal(b1-4)GlcNAc(b1-3)Gal(b1-4)GlcNAc(b1-3)Gal(b1-4)GlcNAc(b1-3)Gal(b1-4)GlcNAc(b1-2)Man(a1-3)[GlcNAc(b1-3)Gal(b1-4)GlcNAc(b1-3)Gal(b1-4)GlcNAc(b1-3)Gal(b1-4)GlcNAc(b1-3)Gal(b1-4)GlcNAc(b1-2)Man(a1-6)]Man(b1-4)GlcNAc(b1-4)[Fuc(a1-6)]GlcNAc
Method in brief: as §1

[20] = molecular target: GlcNAc(b1-3)Gal(b1-4)GlcNAc(b1-3)Gal(b1-4)GlcNAc(b1-3)Gal(b1-4)GlcNAc(b1-3)Gal(b1-4)GlcNAc(b1-2)[GlcNAc(b1-3)Gal(b1-4)GlcNAc(b1-3)Gal(b1-4)GlcNAc(b1-3)Gal(b1-4)GlcNAc(b1-3)Gal(b1-4)GlcNAc(b1-6)]Man(a1-6)[GlcNAc(b1-3)Gal(b1-4)GlcNAc(b1-3)Gal(b1-4)GlcNAc(b1-3)Gal(b1-4)GlcNAc(b1-3)Gal(b1-4)GlcNAc(b1-2)Man(a1-3)]Man(b1-4)GlcNAc(b1-4)[Fuc(a1-6)]GlcNAc
Method in brief: as §1

B1: CLECb-Precomplexed (Mus musculus), P43025 (protein)
chain: MAKNGLVLCILVVSLLLDQTDGYPSRMKARKHSKRRVKAKDDDLKSQVEKLWREVNALKEMQALQTVCLRGTKVHKKCYLASEGLKHYHEANEDCISKGGTLVVPRNSDEINALRDYGKRSLPGVNDFWLGINDMVTEGKFLDVHGFAVSFLNWDRAQPSGGKRENCVLFSQSAQGKWSDEACRSSKRYICEFIIPTRTRPLEQKLISEEDLAANDILDYKDDDDKV
For B1, the “glycan array binding signal (z-score)” value [1] was -0.085, the “glycan array binding signal (z-score)” value [2] was -0.505 and the “glycan array binding signal (z-score)” value [3] was -0.144. For the same binder, the “glycan array binding signal (z-score)” value [4] was -0.362, the “glycan array binding signal (z-score)” value [5] was -0.244 and the “glycan array binding signal (z-score)” value (GlcNAc(b1-3)Fuc) was -0.487. For the same binder, the “glycan array binding signal (z-score)” value (GlcNAc(b1-3)Gal) was -0.251, the “glycan array binding signal (z-score)” value [6] was -0.1 and the “glycan array binding signal (z-score)” value (GlcNAc(b1-3)Gal(b1-4)Glc) was -0.351. For the same binder, the “glycan array binding signal (z-score)” value [7] was -0.118, the “glycan array binding signal (z-score)” value [8] was -0.043 and the “glycan array binding signal (z-score)” value [9] was -0.522. For the same binder, the “glycan array binding signal (z-score)” value [10] was 0.589, the “glycan array binding signal (z-score)” value [11] was 0.043 and the “glycan array binding signal (z-score)” value [12] was 0.084. The “glycan array binding signal (z-score)” value [13] was -0.475, the “glycan array binding signal (z-score)” value [14] was 0.197 and the “glycan array binding signal (z-score)” value [15] was -0.368. The “glycan array binding signal (z-score)” value [16] was -0.255, the “glycan array binding signal (z-score)” value [17] was -0.48 and the “glycan array binding signal (z-score)” value [18] was -0.166. For the same binder, the “glycan array binding signal (z-score)” value [19] was 0.081 and the “glycan array binding signal (z-score)” value [20] was -0.057.

From the supplement of paper PMC8728848
